Measurements taken from PubChem BioAssay AID686979 (National Center for Advancing Translational Sciences (NCATS), 2013).
Among all 420,000 compounds or so, about 50,000 (12%) were called active. This list was built around the results that the source calls inconclusive (neither active nor inactive); the mix of calls is not that of the screen. The call rests on the fitted dose curve; in most records, active means well fitted inhibition curve with a large enough effect; inconclusive means small, poorly fitted or top-dose-only effect; inactive means flat fitted curve, though single readings scatter. Potencies of inconclusive entries are left out as doubtful fits.

test: qHTS for Inhibitors of human tyrosyl-DNA phosphodiesterase 1 (TDP1): qHTS in cells in presence of CPT; settings: chicken DT40 Tdp1-/-;hTDP1 cells + 20 nM CPT, ATP luminescence, 48 h; activity change, negative = growth inhibition: at 46.2 µM (top of the series) unless noted; further: nearly all actives have a fitted effect of over 55% in size
How it was run: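 Cell growth measured by CellTiter-Glo luminescence after a minimum 48 h, 37 C compound exposure with 20 nM CPT in Tdp1-knockout DT40 cells stably expressing hTDP1, seeded 400/well; qHTS titration format.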
On the % scale 0 is the no-effect control and ±100 the full control effect; potency means the concentration at half of the fitted maximal effect; tags describe the fitted curve by direction and shape.

| SMILES | Potency | activity change, negative = growth inhibition |
| --- | --- | --- |
| COc1ccc(C(=O)Nc2nc3cc4c(cc3s2)OCO4)c(OC)c1 | inconclusive [inhibitor, partial curve, poor fit] |  |
| Cc1nccc(-c2ccc(-n3cnc4ccccc43)cc2)n1 | inconclusive [inhibitor, partial curve, poor fit] |  |
| CC(=O)c1nn(-c2cccc(Br)c2)cc1C(=O)c1cccc2ccccc12 | inconclusive [inhibitor, single point] |  |
| CCn1nc(C)cc1C(=O)N1CCCC(Nc2ccc(C(C)C)cc2)C1 (stereo not drawn) | inactive |  |
| CC(C)N(C)C(=O)c1ccc(OC2CCN(CCc3ccccc3)CC2)cc1 | inconclusive [inhibitor, single point] |  |
| Nc1cc(S(=O)(=O)Nc2cc(Cl)ccc2Cl)ccc1N1CCCC1 | inconclusive [inhibitor, single point] |  |
| CCC(C)NC(=O)C1CCN(S(=O)(=O)c2ccc3c(ccn3CC)c2)CC1 (stereo not drawn) | inactive |  |
| O=C(NCc1cc(C(F)(F)F)cc(C(F)(F)F)c1)C1CC(c2ccc(C(F)(F)F)cc2)=NO1 (stereo not drawn) | inconclusive [inhibitor, single point] |  |
| Cc1c(C(=O)Nc2ccccc2)cn2c(nc3ccccc32)c1C#N | inconclusive [inhibitor, partial curve] |  |
| CCC1(c2ccc(F)cc2)NC(=O)N(CC(=O)N2CC(=O)Nc3ccccc32)C1=O (stereo not drawn) | inactive |  |
| CCN(CC)C(=O)Cn1cc(S(=O)(=O)CC(=O)Nc2ccc(C(N)=O)cc2)c2ccccc21 | inactive |  |
| C=CCc1ccc(OCC(O)CN2CCN(c3ccccc3OC)CC2)c(OC)c1 (stereo not drawn) | inactive |  |
| CCOC(=O)C1CCCN(C(=O)C2CCN(S(=O)(=O)c3c(C)noc3/C=C/c3ccc(C)cc3)CC2)C1 (stereo not drawn) | active: 18.4 µM |  |
| CCOc1ccc(CCNC(=O)COC(=O)c2c(C)nn(-c3ccccc3)c2C)cc1OCC | inconclusive [inhibitor, single point] |  |
| CCOc1cc(C(=O)N2CCCN(C)CC2)cc(OCC)c1OCC | inactive |  |
| O=C(O)c1ccccc1NC(=O)N1c2ccccc2Sc2ccccc21 | inconclusive [inhibitor, single point] |  |
| Cn1cccc1Cc1nnc(SCC(=O)NCc2ccccc2)n1-c1ccc(F)cc1 | active: 16.4 µM |  |
| CC(C)N(C)S(=O)(=O)c1ccc(Cl)c(C(=O)O)c1 | inactive |  |
| CC(=O)c1ccc(NC(=O)CN2CCN(S(=O)(=O)c3ccc4ccccc4c3)CC2)cc1 | inconclusive [inhibitor, single point] |  |
| Cc1ccccc1C(C(=O)NCc1ccco1)N(CC1CCCO1)C(=O)Cn1nnc2ccccc21 (stereo not drawn) | inconclusive [inhibitor, single point] |  |
| CCC1C(=O)n2nc(-c3ccccc3)cc2N=C1C (stereo not drawn) | active: 8.2 µM |  |
| O=C1C=C(c2ccc3c(c2)OCO3)CCC1 | inactive |  |
| COc1cccc2sc(N(Cc3cccnc3)C(=O)c3ccc(S(=O)(=O)N(C)C)cc3)nc12 | inconclusive [inhibitor, single point] |  |
| CCOC(=O)/C(=C(/C)N)C1CC(=O)NC1=O (stereo not drawn) | inactive |  |
| CN(c1ccc(C(=O)NCc2ccncc2)cc1)S(=O)(=O)c1ccc(Cl)cc1 | inconclusive [inhibitor, single point] |  |

| SMILES | Potency | activity change, negative = growth inhibition |
| --- | --- | --- |
| CC1CCCC(NC(=O)c2ccc3snnc3c2)C1C (stereo not drawn) | inconclusive [inhibitor, partial curve] |  |
| O=C(O)c1ccccc1C(=O)Nc1nc(-c2ccccc2)cs1 | inactive |  |
| Cc1cc(NC(=O)CSc2ccc(Cl)cc2)no1 | active: 13 µM |  |
| COc1cccc(/C=N/NC(=O)c2ccc(=O)[nH]n2)c1O | active: 23.1 µM |  |
| Cc1ccc(C(=O)NCN2CCN(c3ccc(F)cc3)CC2)cc1 | inactive |  |
| CCC(C(=O)NC(C)(C)C)N(C(=O)Cn1nnc(-c2ccccc2F)n1)c1cccc2c1CCCC2 (stereo not drawn) | inconclusive [inhibitor, single point] |  |
| O=C(O)C(=O)/C(=C\c1ccc(Cl)cc1)c1ccc2ccccc2n1 | inactive |  |
| COc1cccc(-c2cnc3c(NC(C)=O)cc(-c4ccccc4OC)cn23)c1 | active: 18.4 µM |  |
| CC(C)(O)c1ccccc1CC[C@@H](SCC1(CC(=O)O)CC1)c1cccc(/C=C/c2ccc3ccc(Cl)cc3n2)c1 | inconclusive [inhibitor, single point] |  |
| C=CCN1C(=O)CN=C1Nc1cc(C)cc(C)c1 | inactive |  |
| O=C(OCC(=O)N1CCc2ccccc21)c1ccccc1[N+](=O)[O-] | inactive |  |
| COc1ccc(F)cc1C(=O)C1CCCN(Cc2ccc3c(c2)OCCO3)C1 (stereo not drawn) | inconclusive [inhibitor, single point] |  |
| Cc1cc(C)cc(N2C(=O)CS(=O)(=O)C23C(=O)N(Cc2ccccc2)c2ccccc23)c1 (stereo not drawn) | inactive |  |
| CC(C)NC(=O)COc1coc(CN2CCN(C(=O)c3ccco3)CC2)cc1=O | inactive |  |
| Cc1cccc2cc(CN(Cc3ccccc3)C(=S)NCCCN(C)C)c(=O)[nH]c12 | inconclusive [inhibitor, single point] |  |
| O=S(N1CCCCC1)C12CC3CC(CC(C3)C1)C2 (stereo not drawn) | inconclusive [inhibitor, single point] |  |
| O=C(Nc1ccc(O)cc1)C1CCCN1S(=O)(=O)c1ccc(F)cc1 (stereo not drawn) | inconclusive [inhibitor, partial curve, poor fit] |  |
| CCCCc1cc(=O)oc2cc(C)cc(OCC(=O)Nc3ccccn3)c12 | inactive |  |
| CC(=O)NC1=NN(C(C)=O)C(C)(CS(=O)(=O)c2ccc(C)c(C)c2)S1 (stereo not drawn) | inactive |  |
| CCn1c(SCC(=O)NC2CCCCC2)nnc1C(C)NC(=O)c1ccccc1F (stereo not drawn) | inactive |  |
| CCc1cc(=O)[nH]c(SCc2nc(-c3ccccc3C)no2)n1 | inconclusive [inhibitor, single point] |  |
| CCc1nc(N2CCN(C(=O)c3ccco3)CC2)c2c3c(sc2n1)CCCC3 | inconclusive [inhibitor, single point] |  |
| Cc1nn(-c2ccc(C(=O)N3CCN(S(=O)(=O)c4ccccc4C(F)(F)F)CC3)cc2)c(C)c1Cl | inconclusive [inhibitor, single point] |  |
| Cc1ccc(C2(CC(=O)N3CCCC3)CCOC(C(C)C)C2)cc1 (stereo not drawn) | inconclusive [inhibitor, single point] |  |
| CC1CC(C)CN(C(=O)CSc2nnc(-c3ccc(F)cc3)o2)C1 (stereo not drawn) | inconclusive [inhibitor, partial curve] |  |

| SMILES | Potency | activity change, negative = growth inhibition |
| --- | --- | --- |
| CC(C)n1c(=NC(=O)c2ccco2)c(C#N)cc2c(=O)n3ccccc3cc21 | inconclusive [inhibitor, single point] |  |
| COc1ccc(OC)c(/C=N/NC(=O)c2[nH]ncc2Br)c1 | inactive |  |
| COc1ccc(-c2cc(C(F)(F)F)nc(SCC(=O)Nc3ccc(C(C)=O)cc3)n2)cc1 | active: 20.6 µM |  |
| O=C(COC(=O)CCSc1ccc(F)cc1)NCc1ccc(F)cc1 | inconclusive [inhibitor, partial curve, poor fit] |  |
| Cc1noc(C)c1COc1ccc(C(=O)NCCOc2ccccc2)cc1 | inconclusive [inhibitor, single point] |  |
| COc1nnc(-c2ccc(N3CCCCC3)c(NC(=O)c3ccc(Cl)cc3)c2)c2ccccc12 | inactive |  |
| Cn1cccc1/C=C1\SC(=Nc2cccc(O)c2)NC1=O | active: 20.6 µM |  |
| O=c1[nH]c(SCc2cccc(Cl)c2)nc2c1CCCC2 | inconclusive [inhibitor, single point] |  |
| COC(=O)[C@]12CCCCC=C1N(CCc1ccc(OC)c(OC)c1)C(=O)[C@H](CC(=O)NCc1cccs1)C2 | active: 20.6 µM |  |
| CCc1nc(N2CCN(S(=O)(=O)c3ccc(Br)cc3)CC2)c2c(C)c(C)sc2n1 | inconclusive [inhibitor, single point] |  |
| CCOC(=O)Cn1c2c(c(=N)c3c1CCC3)CCCC2 | inactive |  |
| O=C1c2ccccc2C(Nc2ccc(S(=O)(=O)N3CCCCCC3)cc2)N1Cc1ccco1 (stereo not drawn) | active: 20.6 µM |  |
| CCN1CCN(C(=O)C(Cc2ccccc2)NC(=O)c2ccc(Cl)c(S(=O)(=O)N(C)C)c2)CC1 (stereo not drawn) | inconclusive [inhibitor, single point] |  |
| O=C(NCCc1csc(-c2ccc(F)cc2)n1)C(=O)Nc1ccc(Cl)cc1 | inconclusive [inhibitor, single point] |  |
| CCOC(=O)CN(C(=O)CN1CCC(n2nnc3cc(C)ccc32)CC1)c1ccccc1 | inconclusive [inhibitor, single point] |  |
| C[C@@H]1CN([C@H](C)CO)C(=O)CCCn2nncc2CO[C@H]1CN(C)S(=O)(=O)c1ccc(-n2cccn2)cc1 | inactive |  |
| Cc1ccccc1OCCNc1cc(N2CC(C)NC(C)C2)ccc1[N+](=O)[O-] (stereo not drawn) | active: 14.6 µM |  |
| O=C1C2C(c3ccccc3)CC=CC2[C@H](c2ccc3ccccc3c2)N1Cc1ccccc1 (stereo partly drawn) | active: 20.6 µM |  |
| O=C(/C=C1\NC2(CCCC2)Cc2ccccc21)N1CCOCC1 | active: 11.6 µM |  |
| CCc1nc2c(OCCC3CCCCC3)cccn2c1N(C)C(=O)C(C)C | active: 13 µM |  |
| Cc1ccc(-n2ncc3c2CC(C)(C)CC3NC(=O)c2ccccn2)cc1 (stereo not drawn) | inconclusive [inhibitor, single point] |  |
| O=C(CCCN1C(=O)/C(=C/c2cccs2)SC1=S)Nc1ccc(C(=O)O)cc1 | inactive |  |
| COc1ccc(N2CC(NC(=O)NCCC(C)C)CC2=O)cc1 (stereo not drawn) |  | inconclusive: -0.858% [inhibitor] |
